# Results as given in the supplement of paper PMC7826260.
# The other results are listed elsewhere or left out. One pool of 16,384 single-stranded DNAs met each Rep nickase domain in vitro for 1 h at 37 °C with 3 µM enzyme; only the middle of the 90-letter strands is printed. Numbers give uncut DNA relative to the enzyme-free pool, as log2; strong cutting gives strongly negative numbers. There is no active / inactive call. Reads are scaled to the total, so uncut sequences can rise above 0 when many others are cut.
# Test system: T1, Rep nickase domain of tomato golden mosaic virus
# T1 sequence (residues 1-124 of Rep, tag left off): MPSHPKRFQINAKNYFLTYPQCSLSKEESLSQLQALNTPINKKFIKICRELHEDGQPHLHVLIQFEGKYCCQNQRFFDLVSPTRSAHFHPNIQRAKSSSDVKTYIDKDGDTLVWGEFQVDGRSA
# Assay: uncleaved DNA left, log2 of reads against the no-enzyme library (log2 ratio); higher = less cleavage (more negative = more Rep cleavage of the k-mer); sequences stand for … in CTCGTCCG…ACCGGAGA
# Description: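 A pool of 90-nt single-stranded DNAs with seven random bases just before the constant AC of the nick site (name = the seven bases) was cut by 3 µM recombinant His6-SUMO-tagged Rep nickase domain (300 nM DNA, 50 mM HEPES pH 8.0, 50 mM NaCl, 1 mM MnCl2, 1 h, 37 °C, three replicates). Uncut DNA was amplified and sequenced.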
row,Sequence,uncleaved DNA left (log2)
1,TTAAATA,0.106
2,TGGCATC,-0.0781
3,GATGATC,-0.101
4,CGAAGTA,0.0644
5,ACAACAA,0.00212
6,AGCAGGC,-0.0227
7,GTTGAGC,0.0112
8,ATAGTAG,0.0711
9,CACTCAC,-0.303
10,CGATTCC,-0.221
11,TTACGTC,-0.0711
12,TCCCTAT,-0.0812
13,GACGTAT,0.0513
14,CACATGA,0.0848
15,CGGCGCA,0.123
16,TGTCTGG,0.0498
17,AGATCCG,0.0121
18,CTTATTG,-0.0541
19,GATGCGA,-0.0327
20,TTGTTTA,-0.033

row,Sequence,uncleaved DNA left (log2)
1,TGGTAAG,0.141
2,GGTGGGG,0.0952
3,AAATGCC,-0.119
4,GCAATAT,-0.0408
5,GCCTATT,-0.225
6,GTTTGAC,-0.0284
7,AGATTCA,-0.0835
8,GCCACGG,0.0637
9,GTGAATT,0.0631
10,CTGACGC,-0.128
11,TCAACTC,-0.205
12,GGTCCTG,-0.0599
13,CGCTTCG,-0.0285
14,CGCCGGA,-0.0708
15,CCTCAGC,0.0587
16,TGTTGCA,-0.161
17,GTAAAAC,0.11
18,TAGCGTT,-0.124
19,ACGTTTA,-0.0216
20,CCCCTGG,-0.0612
